Laboratory results published in PubChem BioAssay AID588855 (National Center for Advancing Translational Sciences (NCATS), 2011).
The campaign covered roughly 410,000 compounds. About 5,000 (1.2%) were called active. The inconclusive results got no clear call from the source; some entries with a clear call stand among them for comparison. Calls follow the shape of the dose curve; as a rule, active = well fitted inhibition curve with a large enough effect; inconclusive = small, poorly fitted or top-dose-only effect; inactive = no such curve, though single readings can be large or run the other way. Where the call is inconclusive, the potency comes from a doubtful curve fit.

Experiment: qHTS for Inhibitors of TGF-b; also: nearly all actives have a fitted effect of over 65% in size
Settings: HepG2 CAGA-GFP TGF-b/SMAD3 reporter, GFP fluorescence, 18 h, TGF-beta stimulated, 500 pg/mL final; series mostly up to 46.1 µM
In short: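 Smad-responsive CAGA-GFP expression was quantified in HEPG2 cells exposed to compounds and 500 pg/mL final TGF-beta for 18 h at 37 degrees C; unstimulated wells defined full inhibition.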
Potency is read from the fitted curve at half-maximal effect; tags tell the direction and shape of the fitted curve.

SMILES	Potency
CCCn1c(N)c(C(=O)CSc2nc(C)cs2)c(=O)[nH]c1=O	inactive
O=C(c1ccc(-c2ccccc2)cc1)c1ccccc1C(=O)N1CCOCC1	inactive
Fc1ccc(C(c2ccc(F)cc2)N2CCN(C/C=C/c3ccccc3)CC2)cc1	inconclusive: 35.5 µM [inhibitor, single point]
COc1ccc(N2CCN(C(=O)COC(=O)Cc3c(F)cccc3Cl)CC2)cc1	inactive
O=C(NCC(c1ccco1)N1CCCCC1)c1cccnc1 (centres undefined)	inactive
CCOc1ccccc1NC(=O)NCc1noc2ccc(C)cc12	inactive
COCCNc1cc(C)nc2c(-c3ccccc3OC)c(C)nn12	inconclusive: 12.6 µM [inhibitor, partial curve]
CCCCOC1(c2ccccc2)OC(=O)c2ccccc21 (centres undefined)	inconclusive: 0.562 µM [inhibitor, full curve]
COc1ccc(Oc2nc(-c3ccncc3)nc3ccccc23)cc1	inactive
O=C(Nc1cccc(F)c1)C1CCN(S(=O)(=O)c2ccc3[nH]c4c(c3c2)CCCCC4)CC1	inactive
CC(C)C[C@H](NC(=O)c1[nH]cnc1C(=O)N[C@@H](C)C(=O)OC(C)(C)C)C(=O)OC(C)(C)C	inconclusive: 25.1 µM [inhibitor, single point]
Cc1ccc(O)c(Nc2c3ccccc3nc3ccccc23)c1	inconclusive: 22.4 µM [inhibitor, single point]
CCC(Cc1ccccc1)NS(=O)(=O)c1ccc2c(c1)NC(=O)CS2 (centres undefined)	inconclusive: 25.1 µM [inhibitor, single point]
CC(C)C[C@@H](C(=O)NC1CC1)N1C(=O)N2CCc3c([nH]c4ccccc34)[C@@]2(C)C1=O	inconclusive: 3.55 µM [inhibitor, single point]
COc1cc(O)ccc1-c1nc2cc(C)ccn2c1Nc1ccccc1C	inconclusive: 31.6 µM [inhibitor, single point]
Cc1cc(F)ccc1C(O)c1ncc(-c2ccc(Oc3ccccc3)cc2)[nH]1 (centres undefined)	inconclusive: 14.1 µM [inhibitor, single point]
Clc1ccc(-n2ncc3c(NCC4CCCO4)ncnc32)cc1 (centres undefined)	inactive
Cc1ccc(-c2c3c(nc4sc(C(N)=O)c(N)c24)CCCC3)o1	inconclusive: 7.08 µM [inhibitor, partial curve, poor fit]
CCOC(=O)C1CCCN(C(=O)Cn2ncc3c4ccccc4n(C)c3c2=O)C1 (centres undefined)	inactive
Cc1cc(C)nc(N/N=C2/CCSc3ccc(F)cc32)n1	inconclusive: 35.5 µM [inhibitor, single point]
Cc1ccc2c(c1)COc1c3ccc(C(=O)N4CCCCC4)cc3nn1-2	inconclusive: 35.5 µM [inhibitor, single point]
c1ccc2c(C[C@@H]3CNCCN3CCC34CC5CC(CC(C5)C3)C4)cccc2c1	inconclusive: 35.5 µM [inhibitor, single point]
CCOC(=O)N1CCN(CC(O)COc2c(C)cccc2C)CC1 (centres undefined)	inconclusive: 3.98 µM [inhibitor, single point]

SMILES	Potency
COc1ccc(CCN2C(=O)N(c3ccc(C)cc3)C(=O)C2CC(=O)Nc2ccc(OC)cc2)cc1 (centres undefined)	inactive
O=c1cc(N2CCCCC2)c(-c2ccccc2)nn1Cc1ccccc1Cl	inconclusive: 35.5 µM [inhibitor, single point]
Cc1ccc(C)c(CSc2cn(CCNC(=O)c3cccs3)c3ccccc23)c1	inconclusive: 5.01 µM [inhibitor, full curve, poor fit]
COc1ccc(NC(=O)CN2C(=O)CSC(C)C2=O)cc1 (centres undefined)	inconclusive: 25.1 µM [inhibitor, single point]
CC(CNC(=O)c1csc2c1CCCCC2)c1ccccc1 (centres undefined)	inconclusive: 3.55 µM [inhibitor, partial curve, poor fit]
O=C(Nc1ccc(Cl)c(Cl)c1)c1cccc(S(=O)(=O)NCc2cccnc2)c1	inconclusive: 10 µM [inhibitor, partial curve, poor fit]
Cc1csc(NC(=O)c2ccc(Cn3nc(C)c(Br)c3C)o2)n1	inconclusive: 7.08 µM [inhibitor, full curve, poor fit]
COc1cccc(NC(=O)CN(C)C(=O)c2ccc(N3CCCCC3)c([N+](=O)[O-])c2)c1	inconclusive: 35.5 µM [inhibitor, single point]
C[C@@H]1CN([C@@H](C)CO)C(=O)CCCn2nncc2CO[C@H]1CN(C)Cc1ccc(-c2ccccc2)cc1	inconclusive: 35.5 µM [inhibitor, single point]
O=C(NC1CC1)C1=C[C@H](C2CCCCC2)C[C@H](OCc2ccc(CO)cc2)O1	inconclusive: 3.55 µM [inhibitor, partial curve, poor fit]
CC(C)CC(=O)NC(=S)Nc1cccc(NC(=O)c2ccccc2)c1	inconclusive: 35.5 µM [inhibitor, single point]
CCCCC(=O)NCCNc1nc2c(c(=O)n(C)c(=O)n2C)n1Cc1ccc(F)cc1	inactive
Cc1ccccc1NC(=O)Cn1nnc(C(=O)NCc2cccs2)c1N	inactive
Cc1cc(C)c(C)c(OCCCn2ccnc2)c1	inactive
CCCN(Cc1cc2cccc(C)c2[nH]c1=O)C(=O)c1cccc(OC)c1	inactive
CC(=O)Nc1ccc(S(=O)(=O)N(CCCN2CCOCC2)Cc2cccs2)cc1	inactive
COc1ccc(-c2cn3c(n2)sc2cc(C(=O)NCCCN4CCCCCC4)ccc23)cc1	inconclusive: 35.5 µM [inhibitor, single point]
CCOC(=O)C1(CCOc2ccccc2)CCN(Cc2ccc(F)c(OC)c2)CC1	inconclusive: 22.4 µM [inhibitor, single point]
CCOC(=O)c1c(C)n(CC(O)c2ccccc2)c2ccc(O)cc12 (centres undefined)	inconclusive: 22.4 µM [inhibitor, single point]
Cc1onc(-c2ccccc2)c1C(=O)N/N=C/c1cc2c(cc1Cl)OCO2	inactive
O=C(c1ccc(F)cc1)C1CCN(S(=O)(=O)c2ccccc2)CC1	inconclusive: 20 µM [inhibitor, partial curve, poor fit]
CC(=O)c1cccc(NC(=O)N2CCCC2C(=O)Nc2ccc3c(c2)OCCO3)c1 (centres undefined)	inactive
CCOC(=O)/C(N=Nc1sc(C(=O)OC)c(C)c1C(=O)OCC)=C(\O)CCl	inactive

SMILES	Potency
CN(Cc1ccccc1)c1cc2c(c3c1ccn3C)C1CCC2C1 (centres undefined)	inactive
COc1ccccc1NC(=O)c1c(NCc2ccc(C)o2)sc2c1CCC(C)C2 (centres undefined)	inconclusive: 22.4 µM [inhibitor, single point]
COc1ccc(-n2cc3ccc([N+](=O)[O-])cc3n2)cc1	inactive
CN(c1ccccc1)S(=O)(=O)c1cccc(NC(=O)CN2CCCc3ccccc32)c1	inconclusive: 35.5 µM [inhibitor, single point]
C[C@@H]1CCCCO[C@H](CN(C)Cc2ccc3c(c2)OCO3)[C@H](C)CN([C@@H](C)CO)C(=O)c2cc(NC(=O)c3ccccc3)ccc2O1	inconclusive: 28.2 µM [inhibitor, single point]
OC(COc1ccccc1)CN1CCN(c2ccccc2)CC1 (centres undefined)	inactive
COc1ccc(N2CCN(C(=O)c3ccc4c(c3)N(Cc3ccc(F)cc3)C(=O)c3ccccc3S4=O)CC2)cc1 (centres undefined)	inconclusive: 10 µM [inhibitor, partial curve]
Cc1cnc(NC(=O)CSc2nnc(-c3ccncc3)n2C2CCCCC2)s1	inconclusive: 1 µM [inhibitor, partial curve, poor fit]
C#CCNC(=O)C1=C[C@@H](C2CC2)C[C@@H](OCCCCO)O1	inconclusive: 6.31 µM [inhibitor, single point]
OC[C@H]1O[C@@H](c2nc(-c3ccccc3Br)no2)[C@H](O)[C@@H](O)[C@H]1O	inactive
COc1ccccc1Nc1nc(N)nc(CN2CCOCC2)n1	inconclusive: 14.1 µM [inhibitor, partial curve, poor fit]
CCC(Sc1nnnn1-c1ccccc1)C(=O)Nc1nc2ccccc2s1 (centres undefined)	inconclusive: 25.1 µM [inhibitor, single point]
O=C(NNc1ccc(Cl)cc1)c1cccs1	inactive
COc1ccc(/C=N/NC(=O)c2ccccc2)cc1CN1CCN(c2ccc(F)cc2)CC1	inactive
O=c1[nH]c2ccc(NCc3ccccc3OCc3ccc(Cl)cc3)cc2[nH]1	inconclusive: 14.1 µM [inhibitor, single point]
COC(=O)C(C)NC(=O)C12CC3CC(C1)CC(c1ccc(C)cc1)(C3)C2 (centres undefined)	inconclusive: 35.5 µM [inhibitor, single point]
CCCC(=O)C1=C(O)C(C(=O)OC)C(C)(C)CC1=Nc1cccc2ccccc12 (centres undefined)	inconclusive: 35.5 µM [inhibitor, single point]
CCn1c(SCC(=O)OC2CCCCC2)nc2ccccc2c1=O	inconclusive: 14.1 µM [inhibitor, single point]
O=c1cc(/C=C/c2ccccc2)oc2c1ccc1ccccc12	inconclusive: 20 µM [inhibitor, single point]
O=C(NNS(=O)(=O)c1ccccc1)c1cnn(-c2ccccc2)c1-n1cccc1	inactive
Cc1ccccc1C(=O)NCc1nc2cccnc2n1Cc1ccccc1	inactive
CCN(CC)S(=O)(=O)c1ccc(C(=O)Nc2nc3c(Cl)cc(Cl)cc3s2)cc1	inconclusive: 2.82 µM [inhibitor, single point]
O=C(NCc1ccncc1)C(=O)Nc1nc(C23CC4CC(CC(C4)C2)C3)cs1	inconclusive: 35.5 µM [inhibitor, single point]
